# Reference: PMC4336329 (PLoS ONE, 2015)
# Out of some 310,000 compounds screened, about 14,000 (4.5%) showed an effect of 50% or more. Effects have a minus sign here. Some of the results follow.
# Target: human ether-à-go-go-related gene (hERG) potassium channel (human, UniProt Q12809)
# Experiment: primary screen, population patch clamp on CHO cells stably expressing hERG
# 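Further: peak tail current of the secondary pulse compared with the same well before compound.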
# Chain of human ether-à-go-go-related gene (hERG) potassium channel (Q12809 whole entry, looked up): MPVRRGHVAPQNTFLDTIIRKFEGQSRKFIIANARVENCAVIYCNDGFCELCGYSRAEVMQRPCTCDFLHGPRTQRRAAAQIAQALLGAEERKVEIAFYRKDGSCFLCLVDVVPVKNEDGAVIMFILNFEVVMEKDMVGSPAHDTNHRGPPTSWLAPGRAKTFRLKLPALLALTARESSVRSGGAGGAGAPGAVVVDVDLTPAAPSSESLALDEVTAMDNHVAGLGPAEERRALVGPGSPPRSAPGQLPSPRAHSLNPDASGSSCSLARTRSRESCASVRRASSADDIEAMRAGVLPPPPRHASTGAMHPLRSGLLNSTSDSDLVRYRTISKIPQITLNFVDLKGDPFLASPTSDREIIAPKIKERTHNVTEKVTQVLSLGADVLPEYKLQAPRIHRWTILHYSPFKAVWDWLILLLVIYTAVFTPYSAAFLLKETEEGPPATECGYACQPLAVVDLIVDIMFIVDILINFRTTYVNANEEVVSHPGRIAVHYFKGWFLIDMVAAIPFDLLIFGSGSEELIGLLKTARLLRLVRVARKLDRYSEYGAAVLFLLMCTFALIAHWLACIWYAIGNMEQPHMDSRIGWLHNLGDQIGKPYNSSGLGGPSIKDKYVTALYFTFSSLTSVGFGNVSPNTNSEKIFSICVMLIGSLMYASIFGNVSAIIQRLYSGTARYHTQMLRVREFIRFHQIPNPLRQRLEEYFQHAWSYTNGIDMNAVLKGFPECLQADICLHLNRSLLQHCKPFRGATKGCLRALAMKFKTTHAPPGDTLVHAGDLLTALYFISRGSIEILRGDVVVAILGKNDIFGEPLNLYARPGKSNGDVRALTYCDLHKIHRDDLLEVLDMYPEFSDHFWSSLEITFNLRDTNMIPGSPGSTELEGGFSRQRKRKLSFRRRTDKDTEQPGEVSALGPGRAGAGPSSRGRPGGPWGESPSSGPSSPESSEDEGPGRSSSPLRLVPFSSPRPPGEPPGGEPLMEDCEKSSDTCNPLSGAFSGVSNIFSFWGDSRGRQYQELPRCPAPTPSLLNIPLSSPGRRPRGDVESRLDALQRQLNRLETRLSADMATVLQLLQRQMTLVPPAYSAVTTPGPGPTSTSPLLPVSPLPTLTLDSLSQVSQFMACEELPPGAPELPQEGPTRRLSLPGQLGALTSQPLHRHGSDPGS
row,Structure (SMILES),"hERG current change (%, negative = inhibition) at 10uM [%]"
1,O=C(Cc1ccccc1)Nc1ccccc1Oc1ccccc1,0.28
2,CCOc1ccccc1NC(=O)CSc1nc2ccccc2nc1N1CCCC1,10.2
3,CCOc1ccc2nc(NCCNC(=O)Nc3cccc(C)c3)c(C#N)cc2c1,0.537
4,COc1ccc(N(CCCN2C(=O)c3cccc4cccc(c34)C2=O)C(=O)c2cccc(OC)c2)cc1,20.1
5,Cc1cc2cc(C(c3nnnn3Cc3ccccc3)N3CCc4ccccc43)c(=O)[nH]c2cc1C (stereo not shown),-14.7
6,CNC(=S)NNC(=O)c1cn(C)nc1C,16.5
7,CCCCOC(=O)c1ccc(NC(=S)N2CCN(c3ncc4c(=O)c(C(=O)O)cn(CC)c4n3)CC2)cc1,11.2
8,O=C(NNC(=S)NCc1ccco1)c1cccs1,-2.16
9,C=CCn1c(=O)c2ccc(C(=O)NCc3ccccc3)cc2n(Cc2ccc(C)cc2)c1=O,12.1
10,CC(Sc1n[nH]c(N)n1)c1nc2scc(-c3cccs3)c2c(=O)[nH]1 (stereo not shown),0.709
11,Cc1ccccc1S(=O)(=O)Cc1ccc(C(=O)NCc2ccc(F)cc2)o1,-42
12,CS/C(N)=N/N=C/c1c(O)ccc2ccccc12,6.39
13,CC1(C)CC(CC(=O)Nc2nccs2)(c2ccccc2)CCO1 (stereo not shown),4.97
14,Cc1ccnc2nc(C(=O)Nc3nnc(-c4ccc(Cl)cc4)o3)nn12,4.54
15,CCCN(CC(=O)Nc1cc(Cl)cc(Cl)c1)CC(=O)Nc1ccc(F)c(F)c1F,-9.43
16,COc1ccc(N2CCN(C(=O)c3cn(Cc4ccccc4)nc3-c3cccnc3)CC2)cc1,-33.3
17,CCOC(=O)c1c(N)sc(C(N)=O)c1C,18.3
18,CCOC(=O)c1ccc(NC(=S)N(CCCN2CCCC(C)C2)Cc2ccco2)cc1 (stereo not shown),-70.9
19,CCc1ccc(NC(=S)Nc2cc(OC)c(NC(=O)C(C)C)cc2OC)cc1,5.84
20,CC(=O)N1N=C(c2ccc(Cl)cc2)OC1c1ccc(C(C)C)cc1 (stereo not shown),6.01
21,COc1ccc(C(C)(C)C)cc1NC(=O)CCCn1c(=O)oc2ccccc21,-21.1
22,CCc1nn2cc(C(=O)c3cc(Cl)ccc3O)cnc2c1-c1ccc(F)cc1,5.34

row,Structure (SMILES),"hERG current change (%, negative = inhibition) at 10uM [%]"
1,COC(=O)C(=Nc1ccccc1)/C(C(=O)C(=O)N(C)c1ccccc1)=C(\O)c1ccc(Cl)cc1,14.2
2,CCN1CCN(C(=O)c2sc3nc(C)nc(N4CCC(C)CC4)c3c2C)CC1,-8.16
3,COc1ccccc1NC(=O)Cc1csc(NC(=S)Nc2ccc(C)cc2)n1,1.94
4,O=C(c1c(Cl)cccc1Cl)N1CCN(c2cccc3[nH]ccc23)CC1,22.3
5,COc1ccc(CNS(=O)(=O)c2ccc(NC(=O)N3CCCCC3)cc2)cc1,10.7
6,Cc1ccc[n+](CC(=O)N2CCCCC2)c1C.[Br-],6.73
7,CCc1cccc(C)c1NC(=O)C1CCN(C(=O)c2ccc([N+](=O)[O-])cc2)CC1,-48.2
8,COc1ccc(/C=C2\SC(=O)N=C2N)cc1,12.4
9,O=c1nc(N/N=C/C=C/c2ccccc2)cn[nH]1,18.8
10,COc1ccc2nc(C)cc(SCC(=O)NNC(=O)COc3cccc4ccccc34)c2c1,8.24
11,O=C(NCC(c1ccco1)N1CCN(c2ccccc2F)CC1)C1CCCCC1 (stereo not shown),-2.24
12,Cc1sc2ncnc(SCC(=O)N3CCN(C(=O)c4ccco4)CC3)c2c1C,-70.1
13,O=C(c1cccc(N2C(=O)C3C4C=CC(C4)C3C2=O)c1)N1CCN(c2ccccc2F)CC1 (stereo not shown),-15.6
14,O=C(COC(=O)Cc1ccccc1[N+](=O)[O-])NCC1CCCCC1,0.647
15,Cc1ccc(OCC(=O)OCC(=O)Nc2sccc2C(N)=O)cc1C,15
16,O/N=C/c1ccc(OCc2ccccc2F)c(Cl)c1,2.95
17,COc1cccc(CNC(=O)Cn2cc3c(n2)CCCC3)c1,4.5
18,Cc1nc(-c2ccncc2)nc(NCCNc2ccc(C(F)(F)F)cn2)c1Cl,0.868
19,Cc1ccc(OCC(=O)Nc2ccc(F)cc2)cc1,10.2
20,CCN(CC)C(=O)C1CCCN(Cc2nc(-c3cnccn3)no2)C1 (stereo not shown),0.902
21,COP(=O)(CC(=O)c1ccccc1)CC(=O)c1ccccc1,21.8
22,C/C(=N\NS(C)(=O)=O)c1ccccc1,12.6

row,Structure (SMILES),"hERG current change (%, negative = inhibition) at 10uM [%]"
1,COc1cc(C(=O)N2CCC(O)(c3ccccc3)CC2)cc(OC)c1OC,14.7
2,COc1cccc(C(=O)Nc2ccc(S(=O)(=O)Nc3nccc(C)n3)cc2)c1,17.9
3,COc1cccc(/C=N\NC(=O)c2ccc(C)nc2)c1,8.82
4,CCn1cc(S(=O)(=O)CC(=O)Nc2cccc(C)c2)c2ccccc21,5.19
5,O=c1[nH]c(/C=C\c2ccc(O)c(O)c2)nc(O)c1[N+](=O)[O-],16.2
6,Cc1ccc(O)c(C(=O)c2cnc3c(c2)CN(CCC(C)C)C(=O)N3)c1,14.8
7,Oc1ccc(-n2nnnc2SCc2c(F)cccc2Cl)cc1,-1.27
8,O=C(NCc1ccccc1F)c1ccc(S(=O)(=O)N2CCCCCC2)cc1,-22.4
9,Cc1nn2c(NCC(C)C)c3c(nc2c1-c1ccccc1)CCC3,4.8
10,Cn1c(CNS(=O)(=O)c2ccc(Cl)cc2)cc(=O)n(C)c1=O,13
11,CC1CCN(S(=O)(=O)c2nnc(NC(=O)COc3ccccc3F)s2)CC1,-7.13
12,Cc1cc(C)c2c(CC(=O)NC3CCS(=O)(=O)C3)coc2c1 (stereo not shown),16.5
13,CC1CCCCN1C(=O)COC(=O)CNC(=O)c1ccc(Cl)cc1Cl (stereo not shown),1.62
14,COc1ccccc1Nc1nnc(SCC(=O)c2cc(C)n(CC3CCCO3)c2C)s1 (stereo not shown),-7.74
15,COC(=O)C1=C(N)OC2=C(C(=O)CCC2)C1c1ccccc1OC (stereo not shown),-0.702
16,COc1ccc(N(CC(=O)NCCc2ccc(C)cc2)S(=O)(=O)c2c(C)noc2C)cc1,-25.9
17,Clc1ccc(OCc2nc(-c3ccncc3)no2)c(Cl)c1,-17.3
18,COc1cc(/C=C/c2noc(-c3ccccc3O)n2)ccc1OC(C)=O,9.4
19,CCOC(=O)c1ccc(NCCOC)c([N+](=O)[O-])c1,-0.772
20,Cc1ccc(Cn2c(=N)c(C#N)cc3c(=O)n4cccc(C)c4nc32)cc1,-13
21,COC(=O)c1nnn(CC(=O)Nc2cccc(OC)c2)c1C(=O)OC,21.9
22,Cc1ccc(/C=N/NC(=O)c2ccc(NC(=O)c3ccc(Cl)cc3)cc2)o1,22.9

row,Structure (SMILES),"hERG current change (%, negative = inhibition) at 10uM [%]"
1,CCOC(=O)N1CCN(C(=O)c2ccc3c(=O)n(Cc4ccc(Cl)cc4)c(=S)[nH]c3c2)CC1,4.36
2,COc1ccc(OC)c(NC(=O)Cc2c(C(=O)O)n(C)c3ccccc23)c1,7.75
3,COCCNC(=O)c1c[nH]c2ccc(S(=O)(=O)N3CCc4ccccc43)cc2c1=O,6.11
4,COc1cc(OC)cc(C(=O)NCC(=O)OCC(=O)Nc2ccc3c(c2)OCO3)c1,-2.91
5,Cc1ccc(C)c(Oc2cc(NN3CCCCC3)c([N+](=O)[O-])cc2[N+](=O)[O-])c1,10.6
6,O=C(O)CCN1Cc2ccccc2C1=O,16.3
7,c1ccc2sc(NCC3CCCO3)nc2c1 (stereo not shown),28.8
8,CSc1ccc(CNc2ccc(C)c(C)c2)cc1,2.27
9,COc1ccccc1N(C)S(=O)(=O)c1ccc(C(=O)Nc2ccncc2)cc1,-28.6
10,Cc1cc(C)c(C)c(S(=O)(=O)N2CCN(c3ccc(O)cc3)CC2)c1C,21
11,O=c1[nH]c2ccccc2c(O)c1O,10.9
12,CCn1c(SCC(=O)Nc2ccccc2)nc2c1c(=O)n(C)c(=O)n2C,-9.42
13,C/C(=N\NC(=O)NC1CCCCC1)c1ccc(OC(F)F)cc1OC(F)F,23.4
14,COc1ccc(S(=O)(=O)N2c3ccccc3OCC2C(C)(C)C)cc1 (stereo not shown),18.8
15,O=C(C1CC1)N1N=C(C2CCCCC2)CC1(O)C(F)(F)F (stereo not shown),-31.9
16,Cc1c(C(=O)O)oc2c1/C(=N\O)CC(C)(C)C2,-4.22
17,O=C(CN(C(=O)CNC(=O)c1cccs1)c1ccc(F)cc1)NC1CCCC1,10.4
18,Cc1sc2c(c1C)C(=O)/C(=C\Nc1ccccn1)S(=O)(=O)N2C,13
19,Cc1nn(-c2ccccc2)c2sc(C(=O)N3CCCCC3)cc12,-4.52
20,CC1Cc2ccccc2N1C(=S)Nc1ccc(S(N)(=O)=O)cc1 (stereo not shown),6.85
21,Cc1c(NC(=O)CNCc2ccc3c(c2)OCO3)c(=O)n(-c2ccccc2)n1C.O=C(O)C(=O)O,1.24
22,Cc1ccc(/C=N/N=C2/NC(=O)C(CC(=O)N3CCOCC3)S2)cc1 (stereo not shown),11
